Hit rate of the full screen: of about 310,000 compounds, about 18,000 (5.8%) were called active. Inconclusive results, whose numbers are uncertain, are shown with a selection of clear calls. Calls come from the whole dose curve; as a rule, active = well fitted inhibition curve with a large enough effect; inconclusive = small, poorly fitted or top-dose-only effect, or another doubt; inactive = no such curve, though single readings can be large or run the other way. No potency is given beside an inconclusive call; the fits are too rough.
Assay: Primary qHTS for delayed death inhibitors of the malarial parasite plastid, 48 hour incubation
Settings: P. falciparum luciferase growth in erythrocytes; series mostly up to 28.7 µM; activity change, negative = inhibition: at the top concentration
Outline: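 In quantitative HTS format, infected erythrocytes bearing luciferase-reporter parasites were treated for a single generation at 37 C. Luminescence after adding detection reagent served as the growth measure.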
% is set by controls: 0 for no effect and ±100 for the full control effect; potency is the fitted concentration of half-maximal effect; tags give direction and shape of the fitted curve.

Row | SMILES | activity change, negative = inhibition | Potency
1 | Cc1ncc(CO)c(C=O)c1O | inactive: -1.84% | –
2 | COc1cccc(C(C(=O)NCC2CCCO2)N(C(=O)Cn2nnc3ccccc32)c2ccccc2C(C)=O)c1OC (stereo not drawn) | – | inconclusive [inhibitor, single point]
3 | Cc1c(Cl)ccc2c1NC(=O)[C@]21N[C@@H](Cc2ccccc2)[C@H]2C(=O)N(c3ccc(F)cc3)C(=O)[C@H]21 | – | inconclusive [inhibitor, single point]
4 | Cc1cc(C)c(C2C3=C(Nc4c2c(C)nn4-c2ccccn2)c2ccccc2C3=O)c(C)c1 (stereo not drawn) | – | active: 9.28 µM
5 | CN1CCN(C(=O)c2ccc(CS(=O)(=O)c3c(Cl)cccc3Cl)o2)CC1 | inactive: 1.22% | –
6 | O=C(COC(=O)c1ccccc1NC(=O)c1ccco1)NCc1ccc2c(c1)OCO2 | – | inconclusive [inhibitor, partial curve]
7 | Cc1cc(C(=O)N/N=C/c2ccc(-c3ccccc3Cl)o2)n[nH]1 | – | inconclusive [inhibitor, single point]
8 | CC1(c2nnc(-c3ccc(F)cc3)o2)CC(c2ccccc2)=NO1 (stereo not drawn) | inactive: 52% | –
9 | Cc1ccc(CNC(=O)CCCCCNc2nc(=S)[nH]c3ccccc23)cc1 | – | inconclusive [inhibitor, partial curve, poor fit]
10 | Nc1nc(SCC(=O)O)[nH]c(=O)c1NC(=O)c1ccco1 | inactive: 4.1% | –
11 | COc1ccc(CNC(=O)C(c2ccc(C)cc2)N(Cc2cccs2)C(=O)c2ccc3c(c2)OCCO3)cc1 (stereo not drawn) | – | inconclusive [inhibitor, single point]
12 | CCCCCOc1ccc(CSC(=N)N)cc1[N+](=O)[O-] | – | inconclusive [inhibitor, single point]
13 | CC[n+]1cc(C)ccc1/C=C/c1ccc(N(C)C)cc1 | – | inconclusive [inhibitor, full curve, poor fit]
14 | CCOC(=O)C1(Cc2cccc(OC)c2)CCN(CC=C(C)C)CC1 | – | inconclusive [inhibitor, partial curve, poor fit]
15 | Cc1ccc(Cn2c(NCCc3ccccc3)nc3c2c(=O)n(C)c(=O)n3C)cc1 | – | inconclusive [inhibitor, single point]
16 | CC(=O)N1C(C)(C)CC(=NOS(=O)(=O)c2ccccc2)CC1(C)C | inactive: -20.5% | –
17 | Cc1cccc(CCN(C(=O)c2csnn2)C(C(=O)NC2CCCC2)c2ccco2)c1 (stereo not drawn) | – | inconclusive [inhibitor, partial curve, poor fit]
18 | Cc1ccc(C(=O)OCC(=O)Nc2ccc(C(N)=O)cc2)s1 | – | inconclusive [inhibitor, partial curve, poor fit]
19 | O=C(Cn1nc(-c2ccc(N3CCOCC3)c([N+](=O)[O-])c2)c2ccccc2c1=O)N1CCCCC1 | – | inconclusive [inhibitor, partial curve, poor fit]
20 | COc1ccc(C2C(C(=O)NCCN3CCOCC3)c3ccccc3C(=O)N2C2CCCCC2)cc1 (stereo not drawn) | – | inconclusive [inhibitor, single point]
21 | Cc1nn(-c2ccccc2)c2c1C(c1ccc(Br)s1)C(C#N)=C(N)O2 (stereo not drawn) | – | inconclusive [inhibitor, partial curve, poor fit]
22 | O=C(CSc1nc(C2CC2)nc2sc3c(c12)CCCC3)NCc1ccco1 | inactive: 27% | –

Row | SMILES | activity change, negative = inhibition | Potency
23 | COc1ccc2nc(-c3ccccc3)cc(C(=O)OCC(=O)N3CC(C)OC(C)C3)c2c1 (stereo not drawn) | – | active: 11.7 µM
24 | CC(O)Cn1c(N2CCCC2)nc2c1c(=O)[nH]c(=O)n2C (stereo not drawn) | – | inconclusive [inhibitor, partial curve, poor fit]
25 | Cc1cccc2cc(CN(CCCO)C(=O)Nc3cccc(Cl)c3)c(=O)[nH]c12 | – | inconclusive [inhibitor, single point]
26 | Cc1ccc(/C(N)=N/OC(=O)Cc2cccs2)cc1 | inactive: 232% | –
27 | OCC1(CCCc2ccccc2)CCN(C2CCSCC2)CC1 | – | inconclusive [inhibitor, partial curve]
28 | Cc1ncc(CO)c(/C=N/N=C/c2ccccc2O)c1O | – | inconclusive [inhibitor, partial curve]
29 | CN(C)C1(CN=Cc2cc(Cl)cc([N+](=O)[O-])c2O)CCCCC1 | inactive: -5.53% | –
30 | Cc1cc(N/C=C(\C#N)S(=O)(=O)c2ccccc2Cl)nc(C)n1 | inactive: 27.4% | –
31 | COc1ccc(-c2n[nH]c(C)c2-c2cscn2)c(O)c1 | inactive: 15.9% | –
32 | Cc1ccc2cc(CCNC(=O)C3CCCCC3)c(=O)[nH]c2c1C | inactive: 1.87% | –
33 | COc1ccccc1N(CC(=O)NCCSc1ccccn1)S(=O)(=O)c1ccccc1 | – | inconclusive [inhibitor, single point]
34 | COc1ccc(-c2nc(SC(CC(=O)NCCN3CCOCC3)c3cccs3)n[nH]2)cc1 (stereo not drawn) | – | inconclusive [inhibitor, single point]
35 | Cc1cc(C)c(OCC(=O)Nc2ccc(S(=O)(=O)N3CCCC3)cc2)c(C)c1 | – | inconclusive [inhibitor, partial curve, poor fit]
36 | COc1ccc(NC(=O)CN2C(=O)COc3ccc(S(=O)(=O)N4CCCCC4)cc32)cc1OC | – | inconclusive [inhibitor, partial curve, poor fit]
37 | COc1cccc(CN2CCN(Cc3cccn3-c3cccnc3)CC2CCO)c1 (stereo not drawn) | – | inconclusive [inhibitor, full curve, poor fit]
38 | CN(C)N1C(N)=C(C#N)C(c2ccc(Cl)cc2)C2=C1CCCC2=O (stereo not drawn) | inactive: -6.31% | –
39 | Fc1ccc(CSc2nncn2NCc2ccc3c(c2)OCO3)cc1 | – | inconclusive [inhibitor, single point]
40 | Cc1ccc(C(C(=O)NC2CCCCC2)N(Cc2ccco2)C(=O)C2COc3ccccc3O2)o1 (stereo not drawn) | – | active: 7.38 µM
41 | Cc1cccc(NC(=O)CSc2nnc(-c3ccco3)c(-c3ccco3)n2)c1C | inactive: -27.7% | –
42 | CCCn1c(=O)c(C(=O)NNS(=O)(=O)c2ccc(Cl)cc2)c(O)c2ccccc21 | inactive: 5.06% | –
43 | COc1ccc(C2=NS(=O)(=O)N(C)C(C(=O)Nc3ccc(C)cc3)=C2)cc1 | – | inconclusive [inhibitor, full curve, poor fit]

Reference: PubChem BioAssay AID504832 (National Center for Advancing Translational Sciences (NCATS), 2011)
